Results: PubChem BioAssay AID1346428 (National Center for Advancing Translational Sciences (NCATS), 2018)
The campaign covered roughly 48,000 compounds. About 1,200 (2.5%) were called active. About 2% were inconclusive and are not listed.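 Rule for the calls: active = activation of at least 60% and not above a set upper limit (about 1 call in 100 departs from these limits); inconclusive = activation of 40% to 60%, or above that upper limit; inactive = activation under 40%.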 The list shows a part of the results.

Target: Probable G-protein coupled receptor 32 (Homo sapiens) (UniProt O75388)
Sequence of UniProt O75388 (O75388 whole entry, looked up): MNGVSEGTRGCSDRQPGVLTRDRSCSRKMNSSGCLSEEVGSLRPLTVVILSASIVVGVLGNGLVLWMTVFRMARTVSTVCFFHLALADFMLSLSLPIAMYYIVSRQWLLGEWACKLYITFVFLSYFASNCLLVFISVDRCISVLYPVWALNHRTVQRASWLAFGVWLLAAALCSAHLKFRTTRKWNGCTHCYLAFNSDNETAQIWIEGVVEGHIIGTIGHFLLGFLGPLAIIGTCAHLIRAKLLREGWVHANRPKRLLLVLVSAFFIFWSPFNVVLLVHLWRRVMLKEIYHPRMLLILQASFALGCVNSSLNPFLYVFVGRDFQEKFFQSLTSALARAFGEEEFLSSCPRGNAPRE
Assay: qHTS for Agonists of Human Resolvin D1 Receptor DRV1; note: 0% is about no effect
Conditions: CHO-K1 GPR32 beta-arrestin PathHunter luminescence, 90 min; at 76.9 µM; hits give high values; zero percent set by DMSO-only wells
Outline: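 PathHunter enzyme-fragment complementation, CHO-K1 GPR32 stable line; 2,500 cells/well, overnight attach; cpd 90 min 37 °C 5% CO2; detection reagent 1 h RT; chemiluminescence. DMSO = EC0.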

activation, inactive:
COc1ccc(Nc2nc3c(S(=O)(=O)c4ccccc4)nnn3c3ccc(Cl)cc23)cc1 -2.24%, CCN(CC)CCCNC(=O)c1cn(CC)c2ccc(S(=O)(=O)N3CCC(C)CC3)cc2c1=O -3.55%, Cc1cc(=O)n(CC(=O)N2CCCCC2)c2c1c(C)nn2C 14%, COc1cccc(CNC(=O)Cn2c(=O)ccc3cc(S(=O)(=O)N4CCCC4)ccc32)c1 -4.92%, CCc1ccc(S(=O)(=O)c2nnn3c2nc(N(C)Cc2ccccc2)c2cc(Cl)ccc23)cc1 -1.23%, COCCCN1CCC(NC(=O)c2cc(Cl)c(N)c3c2OCC3)CC1 -16.4%, Cc1cc(Nc2ccccc2C)c2cccc(C)c2n1 33.6%, CCC(C)n1c(SCC(=O)Nc2ccccc2C(=O)OC)nc2ccsc2c1=O (stereo not given) -36.4%, Cc1ccc(C(=O)NCC(c2ccc(Cl)cc2)N2CCCCC2)cc1 (stereo not given) -10.3%, COCCCNC(=O)CCCn1c(SCC(=O)c2ccc(Br)cc2)nc2c(sc3ccccc32)c1=O -26.4%, CCc1ccc(NC(=O)C2CCCN(S(=O)(=O)c3ccc4c(c3)oc(=O)n4C)C2)cc1 (stereo not given) 45.9%, COc1cccc(CNC(=O)c2cccc(N3CCCS3(=O)=O)c2)c1 14.1%, Cc1ccc(Cl)c2sc(NC(=O)c3ccc(S(=O)(=O)N4CCCC4)cc3)nc12 5.04%, CCc1nn(CC(=O)NCCc2ccc(Cl)cc2)c(=O)c2cc3c(OC)cccc3n12 -15.9%, COc1ccccc1C(=O)Nc1cccc(OCc2cc(=O)n3ccccc3n2)c1 -14.3%, COC(=O)c1ccc(NC(=O)c2cnn(-c3ccc(Cl)cc3)c2C2CCN(C(=O)OC(C)(C)C)CC2)cc1 -16.9%, COc1cccc(NC(=O)c2oc3ccc(S(=O)(=O)N(C)C4CCCCC4)cc3c2C)c1 -15.9%, CC(C)(C)OC(=O)N1CCC(c2c(C(=O)N3CCCCC3)cnn2-c2ccc(F)cc2)CC1 -7.72%, Cc1ccc(C)c(NC(=O)CSc2nc3ccccc3nc2N2CCOCC2)c1 -0.707%, CCSc1ccccc1C(=O)N1CCN(c2nc3ccccc3s2)CC1 27.7%, CCc1ccc(-c2nn(-c3ccc(OC)cc3)c3c2cnc2ccc(OC)cc23)cc1 -1.93%, CCN(CC)C(=O)c1c(NC(=O)c2ccccc2F)sc2c1CCC(C(C)(C)C)C2 (stereo not given) -33.9%, Cc1cc(C)c(NC(=O)c2cc(C)nc3c2c(C)nn3-c2cccc(F)c2)c(C)c1 -6.69%, Cc1cc2oc(C(=O)N(Cc3ccc(Cl)cc3)Cc3ccco3)c(C)c2cc1Cl -23.3%, COc1cc(NC(=O)CCn2nc(C)cc2C)cc(OC)c1OC 0.194%, CCCn1c(=O)sc2cc(NC(=O)c3ccccc3Cl)ccc21 32.6%, N[C@@H](CS(=O)O)C(=O)O 11.1%, O=C(CSc1nccn1Cc1ccc2c(c1)OCO2)Nc1ccccc1F -14.1%, COc1cccc(N2CCN(C(=O)c3cccn3-c3nnc(N4CCCCC4)s3)CC2)c1 -8.26%, O=C1CC(c2ccc(Cl)cc2)CC(=O)N1 -3.05%, COc1ccc(-c2cc(C(=O)Nc3ccc4c(c3)OCO4)no2)cc1 -5.4%, CCC1CCCCN1CCCNC(=O)c1cn(C)c2ccc(S(=O)(=O)N(C)C3CCCCC3)cc2c1=O (stereo not given) -10.9%, CC1CC(OC(=O)c2ccccc2O)CC(C)(C)C1 (stereo not given) -8.77%, Cc1ccc(-n2ncc3c(=O)n(Cc4cccc(Cl)c4)cnc32)cc1C 3.74%, Cc1ccc(CSc2nc3cccnc3n2Cc2ccc(C(=O)NC3CC3)cc2)cc1 1.87%, O=C(NCc1ccccc1)c1cccn1-c1nnc(N2CCCCC2)s1 -15.9%, CCc1cccc(NC(=O)C2CCN(S(=O)(=O)c3ccc(Br)s3)CC2)c1 -12.5%, COc1cc(OC)c(NC(=O)C2=C(C)C(=O)OC23CCN(C(C)=O)CC3)cc1Cl -2.69%, CCOc1ccccc1CNC(=O)c1cnn(-c2ccc(C)cc2)c1-n1cccc1 -13.3%, Cc1ccc(C)c(NC(=O)Nc2cc3c(cc2N2CCCCC2)n(C)c(=O)n3C)c1 -0.548%, Cc1ccc(NC(=O)Cn2cnc3c(oc4ccccc43)c2=O)cc1Cl 1.22%, COc1ccc(NC(=O)CCCOc2cc(=O)n(C)c3ccccc23)c(OC)c1 8.17%, COCCNC(=O)CSc1c(C)cnc2c1c(=O)n(C)c(=O)n2C 2.68%, C[C@@H](CN1CCC(Cc2ccccc2)CC1)[C@@H](O)c1ccc(O)cc1 -0.303%, Cn1c(NCc2cccc(Cl)c2)nc2ccccc21 -26.9%, CCCn1c2ccccc2c2cnn(CC(=O)NCCc3ccc(S(N)(=O)=O)cc3)c(=O)c21 2.95%, CCOc1ccc(NC(=O)c2cc3cc4ccc(C)cc4nc3o2)cc1 7.35%, CCN(C(=O)c1ccc(C(=O)N(CC)c2ccccc2C)cc1)c1ccccc1C -13.5%, C=Cc1ccc(CN2C(=O)N(c3ccc(C)c(C)c3)S(=O)(=O)c3ccccc32)cc1 -1.97%, Brc1cccc(-c2nnn3c2nc(NC2CCCCC2)c2ccccc23)c1 -7%, Cc1ccc(-n2c(=O)c3ccc(C(=O)NCc4ccco4)cc3n(Cc3ccccc3Cl)c2=O)cc1 -20.7%, CC1CCCCN1CCNC(=O)c1ccc(Cn2c(SCc3ccccc3)nc3cccnc32)cc1 (stereo not given) -14.2%, Cc1nn(-c2ccc(N3CCOCC3)nn2)c(C)c1CCC(=O)NCc1ccc(Cl)cc1 -26.4%, CCS(=O)(=O)c1ncc(Cl)c(C(=O)Nc2ccc(S(=O)(=O)N(C)c3ccccc3)cc2)n1 -29.1%, COc1ccc2nc3sc(C(=O)NCCc4ccc(Cl)cc4)cc3cc2c1 -1.2%
